Where “and” joins values, the source holds several entries; their conditions need not be identical. Equal entries are not always repeated.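 Step 1: Grow cells in 96-well plates. Step 2: Expose to compound for 48 hours at 5 concentrations. Step 3: Interpolate endpoints linearly; if unreached, use highest concentration. GI50 marks 50% less growth. The concentration for full growth arrest is given as TGI.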

The test deals with NCI-H322M lung. Nature of the test: NCI anticancer screen, dose series, 48 h.
`O=C1/C(=C\c2ccc(O)cc2)CCC/C1=C/c1ccc(Cl)c(Cl)c1` had a TGI of 17.7 µM.
As to `CN(C)CCCSc1nc2ccccc2[nH]1`, the TGI was more than 100 µM.
As to `COc1ccc(-c2c(C#N)c(N)n(C3OCC(OC(C)=O)C(OC(C)=O)C3OC(C)=O)c(=S)c2C#N)cc1` (stereo not given), the TGI was more than 100 µM.
Consider `CN(O)c1nc(N(C)O)nc(N2CCOCC2)n1`, for which the GI50 was 2.92 µM and the TGI is more than 100 µM.
As to `COc1ccc2n[se]nc2c1`, the TGI is more than 100 µM.
The molecule `CCc1n[nH]c(=O)n1/N=C/c1c(O)ccc2ccccc12` registered a TGI of more than 100 µM.
Consider `CC1=NN(C(=O)c2ccccc2O)C(=O)/C1=C/c1ccco1`, for which the TGI is more than 100 µM.
As to `C=C(C)C(=O)O[C@H]1CC(=C)[C@@H]2C[C@H](O)[C@](O)(CCl)[C@@H]2[C@H]2OC(=O)C(=C)[C@@H]21`, the GI50 was 11.6 µM and the TGI is 24.4 µM.
`O=C(NC1=NCC(CN2CCN(c3ccccc3)CC2)O1)Nc1ccccc1` (stereo not given) returned a TGI of more than 100 µM.
`N#CC(NC12CC3CC(CC(C3)C1)C2)c1ccc2c(c1)OCO2` (stereo not given) came in with a TGI of more than 100 µM.
In the case of `COc1ccc(-c2cn(-c3cc(OC)c(OC)c(OC)c3)c(SCc3ccccc3)n2)cc1OC`, the GI50 is more than 100 µM and the TGI is more than 100 µM.
Consider `CCOC(=O)c1cnc2oc3ccc(O)cc3c2c1C`, for which the TGI was more than 100 µM.
For `C(#Cc1ccccc1C#Cc1cccs1)c1cccs1`, the GI50 was 94.3 µM and the TGI is more than 100 µM.
The molecule `CNc1ncnc2c1ncn2C1C=CC(COS(N)(=O)=O)C1` (stereo not given) displayed a TGI of more than 100 µM.
In the case of `COC(=O)C1(C(=O)OC)Cc2ccc(OC)cc2C2=C1C(=O)c1ccccc1C2=O`, the TGI turned out to be 39 µM.
On the same count and under the same terms, with `C=C(C)C1=CCC[C@]2(C1)N=C(OC)[C@@H](C(C)C)N=C2OC` the figure was more than 100 µM; with `CC[C@]1(Cc2ccc(OC)c(OC)c2)C=[N+]([O-])O[C@H](OC2CCCC2(c2ccccc2)c2ccccc2)[C@@H]1OC(=O)c1ccccc1` (stereo not given in full), more than 58.2 µM.
For `CCOC(=O)C1=C(C)OC2(O)C=CC(O)=C3C(=O)N(c4ccccc4)C(=O)C312` (stereo not given), the TGI is more than 100 µM.
For the molecule `Cc1cc(=O)[nH]c(-n2[nH]c(C)c(CCO)c2=O)n1`, the TGI is more than 100 µM.
Still for that read-out and setting: with `COc1ccc(Nc2nnc(-c3nsc4ccccc34)s2)cc1` the figure was more than 100 µM.
Consider `COc1cc(NC(C)CCCNC2CN3CCC2CC3)c2ncccc2c1` (stereo not given), for which the GI50 is 12.4 µM and the TGI amounted to 25.5 µM.
Take `C=C(C)C(=O)Nc1ccc(NC(C)C)cc1`: the GI50 was more than 100 µM and the TGI is more than 100 µM.
As to `Nc1ccnc(=O)[nH]1`, the TGI is more than 100 µM.
For `C1=NCCN2CCN(CCN=Cc3ccc(cc3)OCc3cccc(n3)COc3ccc1cc3)CC2`, the TGI was more than 50 µM.
With `CN[C@@H](C)C(=O)N[C@H](C(=O)N1CCC[C@H]1C(=O)Nc1snnc1-c1ccccc1)C1CCCCC1`, the GI50 was 59 µM and the TGI is more than 100 µM.
With `O=C([CH-]C(=O)c1ccccc1)c1ccccc1.O=C([CH-]C(=O)c1ccccc1)c1ccccc1.[La+3].[OH-].[OH3+]`, the GI50 is 17.9 µM and the TGI turned out to be 65.1 µM.
In turn, `O=C1c2cc(Cl)ccc2-n2cnnc2C2CSCN12` (stereo not given) registered a TGI of more than 100 µM.
Still for that read-out and setting: the result for `OC(c1ccccc1)(c1ccccc1)c1ccncc1` reads more than 100 µM.
Molecule `Cc1ccc(Nc2n[nH]c(=S)s2)cc1C` registered a TGI of more than 100 µM.
The same measure, in the same setting: with `O=C(Nc1ccc(Cl)cc1)NS(=O)(=O)c1coc2cc(F)ccc2c1=O` the figure was more than 100 µM; with `CCS(CC)(CC)CC1CCCC2=CCC(P(=O)(c3ccccc3)c3ccccc3)CC21` (stereo not given), 24.4 µM.
Regarding `COc1cc(C(=O)O[C@H](C(=O)NCCCCCNC(=O)[C@@H](OC(=O)c2cc(OC)cc3c(C)cccc23)[C@]2(C)CO2)[C@]2(C)CO2)c2cccc(C)c2c1`, the GI50 is 0.971 µM and the TGI stood at 2.59 µM.
In the case of `O=[N+]([O-])/C(C(Cl)=C(Cl)Cl)=C(\N1CCOCC1)n1nnc2ccccc21`, the TGI turned out to be 30.5 µM.
Same read-out and setting: the result for `CCOC(=O)P(=O)(O)c1ccc(N(C)Cc2ccccc2)cc1` reads more than 100 µM; that for `COC1(OC)c2no[n+]([O-])c2CCC1O` (stereo not given), more than 100 µM; that for `C(=C\c1cccs1)/c1cccc(/C=C/c2cccs2)n1`, more than 100 µM.
In the case of `COc1cc(O)c2c(=O)cc(-c3ccc(O)cc3O)oc2c1CC=C(C)C`, the TGI was found to be 38.3 µM.
On to `CN(CCCn1c2c(c3ccccc3c1=O)C(=O)c1ccccc1-2)CCCn1c2c(c3ccccc3c1=O)C(=O)c1ccccc1-2`, for which the GI50 is 0.661 µM and the TGI turned out to be 15 µM.
Take `CC(C)OC(=O)c1ccc(NCc2cc(O)ccc2O)cc1Cl`: the TGI was more than 100 µM.
For the molecule `C=C1c2ccccc2C(=O)c2c1c1c(C(=O)OC)c(O)ccc1n2Cc1ccccc1`, the TGI is 3.87 µM.
In the case of `O=C(CCCCCCCCC(=O)N/N=C\c1ccccc1O)N/N=C\c1ccccc1O`, the GI50 was 0.239 µM and the TGI is 30.2 µM.
In the same order, the values of `CC(C)N(Cc1ccccc1)c1c(S)ssc1=S` are 3.39 µM and more than 100 µM.
Consider `NC(=O)N/N=C(\CC1OC(=O)c2ccccc21)c1ccco1` (stereo not given), for which the TGI was more than 100 µM.
The molecule `COc1ccc(C2=CC(c3ccc4c(c3)OCO4)c3c(c4ccccc4oc3=O)O2)cc1OC` (stereo not given) yielded a TGI of more than 100 µM.
Consider `Cc1cc(=O)n(-c2ccccc2C)c(C)n1`, for which the TGI is more than 100 µM.
`O=C1/C(=C/c2cccc(Br)c2)CCc2ccccc21`: the TGI worked out at 32.4 µM.
Molecule `CCOC(=O)c1cccn1S(=O)(=O)c1cc(Cl)ccc1NC(=O)CC` yielded a TGI of more than 100 µM.
For `CC1CCC(NC(=O)N(CCCl)N=O)CC1` (stereo not given), the TGI came out at 151 µM.
The same measure, in the same setting: the result for `C=CCN1C(=O)/C(=C/c2ccco2)N=C1SC/C=C/C` reads more than 100 µM; that for `O=C(O)CNC(=O)c1ccc(-c2ccccc2)cc1`, more than 100 µM.
As to `C/C(CC(=O)Nc1ccc([N+](=O)[O-])cc1)=N\NC(N)=O`, the TGI was more than 100 µM.
The molecule `CCN(CC)c1c(C(=O)/C=C/c2ccc(OC)cc2)c(-c2ccccc2)nn(C)c1=O` came in with a TGI of 44.7 µM.
Consider `COc1ccc2c(c1)c(=O)oc1cc(OC/C(C)=N\O)ccc12`, for which the GI50 was more than 100 µM and the TGI is more than 100 µM.
For the molecule `CC1C2(C)OC(=N)C(C#N)(C(c3ccccc3)O2)C1(C#N)C#N` (stereo not given), the TGI is more than 100 µM.
Take `C=CCOc1cccc(C2(O)c3ccccc3C3=NCCCN32)c1` (stereo not given): the TGI is more than 44.1 µM.
In turn, `CN(C)CC/C(=N\Nc1ccc([N+](=O)[O-])cc1)c1ccccc1` yielded a TGI of 28.9 µM.
Consider `O=C1CCCCC/C1=C\c1cccc(Cl)c1`, for which the TGI is more than 100 µM.
Turning to `C[C@H]1[C@H](C)CC[C@]2(CO)CC[C@]3(C)C(=CC[C@@H]4[C@@]5(C)CCCNC(C)(C)[C@@H]5CC[C@]43C)[C@H]12`, the GI50 is 1.73 µM and the TGI stood at 3.19 µM.
`CCc1c2c([nH]c(=S)c1C#N)CCC2` returned a TGI of more than 100 µM.
Take `OC1(c2cccs2)c2cccc(Cl)c2C(O)(c2cccs2)c2c(Cl)cccc21` (stereo not given): the TGI was more than 100 µM.
As for `COc1cc2ccc(/C=C\[N+](=O)[O-])cc2cc1OC`, the TGI is 27.6 µM.
`Clc1ccc(C2SCc3nc4ccccc4n32)c(Cl)c1` (stereo not given) registered a TGI of 25.9 µM.
`CN1CCc2[nH]c3ccccc3c2C1`: the TGI is more than 100 µM.
Molecule `O=C1/C(=C/c2ccccc2O)N=C(c2ccccc2)N1C1Nc2cc3c(cc2S1)NC(N1C(=O)/C(=C/c2ccccc2O)N=C1c1ccccc1)S3` (stereo not given) yielded a TGI of more than 100 µM.
Same read-out and setting: the result for `NN(CC(=O)O)CC(=O)O` reads more than 100 µM.
On to `Fc1ccc2c(c1)C1=NN(c3ccccc3)C(F)C1CO2` (stereo not given), for which the GI50 is 10.5 µM and the TGI came to 32.2 µM.
The like results for `CC/C=C1/C(=O)C=C[C@@H]1C/C=C\CCCC(=O)OC` were, in that order, 7.3 µM and 21.3 µM.
As for `COc1c(C)c2c(c(O)c1C/C=C(\C)CCC(=O)O)C(=O)OC2`, the GI50 is 0.5 µM and the TGI was more than 100 µM.
As to `COc1cc2c(oc(=O)c3c4oc([Si](C)(C)C)cc4cc(OC)c23)c2cccc(OCc3ccccc3)c12`, the TGI was more than 84.2 µM.
The same measure, in the same setting: with `O=C1c2ccccc2C(O)(O)C1(O)C1(O)C(=O)c2ccccc2C1(O)O` (stereo not given) the figure was more than 100 µM.
Regarding `C=CCNC1=C2C[C@@H](C)C[C@@H](OC)[C@H](OC(=O)CCN)[C@H](C)/C=C(\C)[C@@H](OC(N)=O)[C@H](OC)/C=C\C=C(/C)C(=O)NC(=CC1=O)C2=O`, the TGI was 20.3 µM.
Take `Cc1cc(O)c(C(C)C)cc1S(=O)(=O)O` (tested in a mixture with another compound): the GI50 was 1.23 µM; the TGI was > 100 µM and 14.8 µM.
In turn, `Cc1cc2c(cc1-c1cc3c(cc1C)C(C(C)C)=C(O)C(=O)/C3=C\Nc1c3ccccc3nc3ccccc13)/C(=C/Nc1c3ccccc3nc3ccccc13)C(=O)C(O)=C2C(C)C` came in with a TGI of 16.5 µM.
On the same count and under the same terms, the result for `CN1C(=Nc2ccccc2)SC1=Nc1ccccc1` reads more than 100 µM.
As for `C=C1C(=O)O[C@H]2[C@H]1CC/C(COC(=O)NCc1cn(C)c3ccccc13)=C\CC[C@@]1(C)O[C@@H]21`, the GI50 was 3.05 µM and the TGI turned out to be 13.7 µM.
`O=[N+]([O-])c1cc(C(F)(F)F)cc([N+](=O)[O-])c1CCl` yielded a TGI of 10 µM.
Take `CP1(=O)CCCCC1`: the TGI was more than 100 µM.
`O=C1C(Cl)C2(CC(/C=C/c3ccccc3Cl)=NN2c2cccc(S(=O)(=O)O)c2)N1c1nc2ccccc2s1` (stereo not given) showed a TGI of more than 100 µM.
The same measure, in the same setting: with `COc1ccc(Br)c(N/N=C2\CCCNC2=O)c1` the figure was more than 100 µM.
Take `CC(C)(C)n1cc(-c2ccnc(NCCCNS(=O)(=O)c3ccc(C(F)(F)F)cc3)c2)c(-c2cccc(O)c2)n1`: the GI50 was 2.07 µM and the TGI came to 4.06 µM.
For the molecule `CCN(CC)CCCC(C)Nc1ccnc2cc(Oc3ccccc3)ccc12` (stereo not given), the GI50 is 5.63 µM and 22.6 µM; the TGI is 17.1 µM and 79.4 µM.
As for `CN(C)Nc1cc(=O)[nH]c(=O)[nH]1`, the TGI was more than 100 µM.
The molecule `CC(=O)OC1COC(n2c(O)c(N=NC(N)=S)c3cc(Br)ccc32)C(OC(C)=O)C1OC(C)=O` (stereo not given) yielded a TGI of more than 100 µM.
Take `CN(C)CCN1C(=O)c2ccccc2N(C)c2ccccc21`: the GI50 is more than 100 µM and the TGI is more than 100 µM.
`CNC1=C(C)C(=O)C(=O)C([C@H](C)CCC=C(C)C)=C1O` yielded a TGI of more than 100 µM.
Consider `COC(=O)[C@@H]1CN(C(C)=O)C(=O)N1`, for which the TGI is more than 100 µM.
As to `CCOc1ccccc1N1C(=O)C(=O)C(c2nc3ccccc3o2)C(=O)C1=O`, the TGI was more than 100 µM.
Regarding `Nc1ncnn2c(C3OC(CO)C(O)C3O)ccc12` (stereo not given), the TGI came out at 0.595 µM.

For the origin of these results see PubChem BioAssay (NCI).
